Assay results taken from article PMC6212790.
Some of the results follow. At the low end of the ranking the order means little.
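Also: rank score from −0.5 (least bound) to 0.5 (best bound).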

The sequences below were run against T1, GST-Rok-C97-191 (UniProt O34857) (assay: protein binding microarray). Details: Rok is a gene silencer of Bacillus subtilis; high values mean tight binding; most listed sequences are background and not binding sites; double strand, one strand shown.
T1 sequence: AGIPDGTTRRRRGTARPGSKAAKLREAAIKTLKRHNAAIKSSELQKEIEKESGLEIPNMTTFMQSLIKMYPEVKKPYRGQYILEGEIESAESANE
GGCAGTAA was tested, and the binding signal was 0.236 E-score. Work on ATACAGTC yielded a binding signal of 0.158 E-score. CTTAAAGA was tested, and the binding signal was -0.126 E-score. In the case of GTCGACCA, the binding signal is reported as -0.198 E-score. AGGCTCTA gave a binding signal of -0.0626 E-score. With AAACGCCG the binding signal was -0.246 E-score. For AAGACACG, the binding signal was -0.0621 E-score. Sequence CAGTACCC has a binding signal of -0.135 E-score. In the case of AAGCCAGC, the binding signal is reported as -0.0922 E-score. GTTAGTGA gave a binding signal of 0.0336 E-score. Work on TTACACAA yielded a binding signal of 0.109 E-score. In the case of GCGGTAAC, the binding signal is reported as -0.0554 E-score. Sequence CAACATAA has a binding signal of 0.0943 E-score. ACGACTCA showed a binding signal of -0.0452 E-score. ATTTGGAG gave a binding signal of -0.192 E-score. Sequence CCGGTCAA has a binding signal of 0.0434 E-score. Sequence ATTTCCTC has a binding signal of -0.0982 E-score. In the case of GGCGACAC, the binding signal is reported as -0.0519 E-score. With GTTGTAGA the binding signal was 0.283 E-score. With CTCCGGAC the binding signal was -0.132 E-score. Sequence ACTGGGAC has a binding signal of -0.142 E-score. GGGCGATA gave a binding signal of -0.137 E-score. For GAGACGCA, the binding signal was -0.281 E-score. Work on TGCGAGCA yielded a binding signal of -0.0842 E-score. With AAGGTTTA the binding signal was 0.191 E-score. ATGTGCTC was tested, and the binding signal was 0.0251 E-score. CTAGTGCC was tested, and the binding signal was 0.0424 E-score. For ATTCCCTA, the binding signal was 0.0618 E-score. Work on GTTGACCA yielded a binding signal of -0.0968 E-score. ATTGGGTG gave a binding signal of -0.0866 E-score. AGAGTGCT was tested, and the binding signal was 0.00259 E-score. For AACAACTG, the binding signal was -0.0632 E-score. With GTAGTTTA the binding signal was 0.423 E-score. For CCCAAGGG, the binding signal was -0.194 E-score. In the case of ATTCGTGA, the binding signal is reported as 0.0913 E-score. CAGTCCCA showed a binding signal of -0.104 E-score. For GCGGCACA, the binding signal was -0.157 E-score. With ATGCGAGC the binding signal was -0.238 E-score. CCTCACCG was tested, and the binding signal was -0.239 E-score. Work on GCCGCGGC yielded a binding signal of -0.285 E-score. CATATGCA showed a binding signal of 0.0211 E-score. In the case of AAGGCTAC, the binding signal is reported as -0.055 E-score. AGTGATTA gave a binding signal of 0.204 E-score. AGCTGCAG was tested, and the binding signal was -0.0871 E-score. In the case of TACGCATA, the binding signal is reported as -0.076 E-score. Work on TCTGTTAA yielded a binding signal of 0.00384 E-score. Sequence CAAAATAG has a binding signal of 0.333 E-score. ATTCGCTA gave a binding signal of 0.173 E-score. Work on GAAGTGAA yielded a binding signal of -0.203 E-score. ATGTTAAG was tested, and the binding signal was 0.104 E-score. Work on AGGTCACC yielded a binding signal of -0.253 E-score. With AATATAAC the binding signal was 0.205 E-score. ATTACAAC showed a binding signal of 0.206 E-score. Work on GCCCCTGA yielded a binding signal of -0.293 E-score. Sequence ATTAATCC has a binding signal of 0.223 E-score. Work on GGGCTCTA yielded a binding signal of 0.0653 E-score. Sequence ATCCCGAA has a binding signal of 0.0949 E-score. For CGTGTTAC, the binding signal was 0.0253 E-score. For TATCTTAA, the binding signal was 0.145 E-score. Sequence CTTTAGCC has a binding signal of 0.0163 E-score. AAGTTGGT gave a binding signal of -0.0226 E-score. CGCCCACA gave a binding signal of -0.101 E-score. CCCTGAGC was tested, and the binding signal was -0.358 E-score. Sequence CATAGGCA has a binding signal of 0.0753 E-score. CCGTCCAA gave a binding signal of -0.13 E-score. With CAGAAGAG the binding signal was -0.164 E-score. CAGGTCGG was tested, and the binding signal was -0.368 E-score. In the case of CATAGATA, the binding signal is reported as 0.297 E-score. In the case of AGACCCAG, the binding signal is reported as -0.168 E-score. Sequence AAATCCTG has a binding signal of -0.0187 E-score. Sequence CAGCTTAG has a binding signal of -0.171 E-score. AACGCTGT was tested, and the binding signal was -0.0929 E-score. CACATTGC showed a binding signal of -0.0219 E-score. Work on AAGAAAAT yielded a binding signal of 0.188 E-score. AACCGGGC showed a binding signal of -0.238 E-score. CAAACAAC gave a binding signal of 0.00245 E-score. For CATAGGCC, the binding signal was -0.293 E-score. In the case of CACATGCA, the binding signal is reported as 0.206 E-score. GAGCCCCC showed a binding signal of -0.339 E-score. CGGTACAA gave a binding signal of 0.112 E-score. Work on CCGTAACG yielded a binding signal of -0.144 E-score. Sequence ATTGCCCA has a binding signal of -0.00433 E-score. ATGGTTGG was tested, and the binding signal was -0.146 E-score. In the case of CAAAGATA, the binding signal is reported as 0.147 E-score. CGCCGAGC gave a binding signal of -0.176 E-score. For AATTGACC, the binding signal was 0.103 E-score.
